In all, about 310,000 compounds went through this assay and about 2,200 (0.71%) showed an effect of 50% or more. Effects have a minus sign here. The list shows a part of the results.
The compounds below were run against human ether-à-go-go-related gene (hERG) potassium channel (human, UniProt Q12809) (assay: primary screen, population patch clamp on CHO cells stably expressing hERG).
human ether-à-go-go-related gene (hERG) potassium channel, sequence (Q12809 whole entry, looked up): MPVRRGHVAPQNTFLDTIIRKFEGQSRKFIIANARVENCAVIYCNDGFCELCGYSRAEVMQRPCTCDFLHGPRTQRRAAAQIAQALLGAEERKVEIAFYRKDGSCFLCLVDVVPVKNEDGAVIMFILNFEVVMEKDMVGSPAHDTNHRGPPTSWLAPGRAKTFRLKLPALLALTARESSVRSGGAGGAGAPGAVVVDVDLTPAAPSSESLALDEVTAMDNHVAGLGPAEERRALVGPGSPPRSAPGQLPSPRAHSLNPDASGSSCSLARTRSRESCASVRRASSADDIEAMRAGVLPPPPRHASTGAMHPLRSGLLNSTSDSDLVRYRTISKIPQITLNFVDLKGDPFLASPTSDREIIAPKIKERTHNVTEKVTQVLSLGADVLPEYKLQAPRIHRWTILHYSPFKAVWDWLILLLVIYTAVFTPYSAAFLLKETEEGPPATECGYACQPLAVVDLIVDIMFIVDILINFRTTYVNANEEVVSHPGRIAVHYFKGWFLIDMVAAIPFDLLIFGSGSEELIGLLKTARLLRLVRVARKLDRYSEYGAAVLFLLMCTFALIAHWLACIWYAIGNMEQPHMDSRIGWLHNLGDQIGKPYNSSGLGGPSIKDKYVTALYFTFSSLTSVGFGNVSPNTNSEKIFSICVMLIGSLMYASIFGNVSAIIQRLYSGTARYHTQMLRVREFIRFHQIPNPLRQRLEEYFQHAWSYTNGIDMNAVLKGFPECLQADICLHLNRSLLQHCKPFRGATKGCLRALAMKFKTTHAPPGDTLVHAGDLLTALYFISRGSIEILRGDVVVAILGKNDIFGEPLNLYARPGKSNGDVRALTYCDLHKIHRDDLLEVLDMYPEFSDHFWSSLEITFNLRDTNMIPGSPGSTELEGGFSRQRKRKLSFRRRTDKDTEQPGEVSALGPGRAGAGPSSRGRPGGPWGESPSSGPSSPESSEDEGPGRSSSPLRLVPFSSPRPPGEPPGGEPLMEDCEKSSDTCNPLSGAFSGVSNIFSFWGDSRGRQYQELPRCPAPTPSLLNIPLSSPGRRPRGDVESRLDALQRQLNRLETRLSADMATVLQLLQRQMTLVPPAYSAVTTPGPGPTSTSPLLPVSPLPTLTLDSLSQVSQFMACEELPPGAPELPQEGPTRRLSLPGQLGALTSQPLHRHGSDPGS
With `COc1ccc(CC(=O)N2N=C(C)CC2(O)c2cccnc2)cc1OC` (stereo not shown) the “hERG current change (%, negative = inhibition) at 1uM” value was 6.22%. `c1cc2nncn2nc1N1CCCC1` was tested, and the “hERG current change (%, negative = inhibition) at 1uM” value was 4.9%. In the case of `COc1ccc(Cn2c(=O)[nH]c3cc(C(=O)NCCCN4CCCC4=O)ccc3c2=O)cc1`, the “hERG current change (%, negative = inhibition) at 1uM” value is reported as 8.02%. With `Cc1cccc(NC(=O)c2sc3nc(N)c(C#N)cc3c2N)c1` the “hERG current change (%, negative = inhibition) at 1uM” value was 12.2%. With `COc1ccc(/C=N/NC(=O)C(=O)N2CCCCCC2)cc1` the “hERG current change (%, negative = inhibition) at 1uM” value was 9.68%. With `Cc1cc(Br)ccc1SCC(=O)OCC(=O)N1CCN(C(=O)c2ccco2)CC1` the “hERG current change (%, negative = inhibition) at 1uM” value was -15.3%. For `O=C(Cn1cc(C(=O)C2CC2)c2ccccc21)NCc1ccc2c(c1)OCO2`, the “hERG current change (%, negative = inhibition) at 1uM” value was 8.71%. With `Cc1ccccc1CNS(=O)(=O)c1c(C(=O)N2CCCC2)c(C)n(C)c1C` the “hERG current change (%, negative = inhibition) at 1uM” value was 15.5%. For `CN(C)S(=O)(=O)N(CC(=O)N1CCOCC1)c1ccccc1`, the “hERG current change (%, negative = inhibition) at 1uM” value was 4.6%. In the case of `COC(=O)CCCN1C(=O)c2cccc3cccc(c23)C1=O`, the “hERG current change (%, negative = inhibition) at 1uM” value is reported as 12.3%. `CS(=O)(=O)Nc1ccc(C(=O)Nc2ccc3c(c2)OCO3)cc1` was tested, and the “hERG current change (%, negative = inhibition) at 1uM” value was 7.26%. In the case of `CCOC(=O)c1c(/N=C/C2C(=O)NC(=S)NC2=O)sc2c1CCC2`, the “hERG current change (%, negative = inhibition) at 1uM” value is reported as 8.76%. In the case of `COc1cccc(CN(C)C(=O)c2cccc(S(=O)(=O)N3CCN(c4ccc(F)cc4)CC3)c2)c1OC`, the “hERG current change (%, negative = inhibition) at 1uM” value is reported as 7.83%. In the case of `C=CCn1c(-c2cc3cccc(OC)c3o2)n[nH]c1=S`, the “hERG current change (%, negative = inhibition) at 1uM” value is reported as 10.8%. For `CCOc1ccc(NC(=O)C2CCCN(S(=O)(=O)c3cccc4nsnc34)C2)cc1` (stereo not shown), the “hERG current change (%, negative = inhibition) at 1uM” value was 6.22%. With `Cc1cc(SCc2cc(=O)[nH]c3ccccc23)nc2ccccc12` the “hERG current change (%, negative = inhibition) at 1uM” value was 17.9%. With `CCOc1ccc(CCNC(=O)C(C)n2nc(C)c3c(C)n(-c4ccccc4)nc3c2=O)cc1` (stereo not shown) the “hERG current change (%, negative = inhibition) at 1uM” value was -5.23%. With `O=C(OC1CCN(c2ncc(C(F)(F)F)cc2Cl)CC1)c1ccccc1` the “hERG current change (%, negative = inhibition) at 1uM” value was 5.38%. In the case of `CC(=O)c1ccc(N2CCC(c3cc(-c4ccc(Cl)cc4Cl)n[nH]3)CC2)c([N+](=O)[O-])c1`, the “hERG current change (%, negative = inhibition) at 1uM” value is reported as 9%. With `Cc1cccc(C(=O)Nc2cccc(C(=O)Nc3cc(C)ccn3)c2)c1` the “hERG current change (%, negative = inhibition) at 1uM” value was 12.1%. With `C=C(C)CN1C(=O)c2ccccc2C1=O` the “hERG current change (%, negative = inhibition) at 1uM” value was 4.89%. For `COc1ccc(-n2c(N)c(C(=O)NCc3ccco3)c3nc4ccccc4nc32)cc1`, the “hERG current change (%, negative = inhibition) at 1uM” value was 10.3%. For `COc1ccc(/C=C/C(=O)O)cc1Cl`, the “hERG current change (%, negative = inhibition) at 1uM” value was 13.9%. For `O=C(CNC(=O)C1CCCCC1)NNC(=O)c1ccccc1Br`, the “hERG current change (%, negative = inhibition) at 1uM” value was 6.57%. With `Cn1c(-c2sccc2OCc2ccccc2)n[nH]c1=S` the “hERG current change (%, negative = inhibition) at 1uM” value was 6.25%. With `CCOC(=O)N/N=C\c1ccc(C)s1` the “hERG current change (%, negative = inhibition) at 1uM” value was -0.197%. For `COc1cc(NC(=O)Cn2ccsc2=N)c(C)cc1[N+](=O)[O-].Cl`, the “hERG current change (%, negative = inhibition) at 1uM” value was 7.46%. `NC(=O)C(F)(F)C12OC3C4C5CC(C6C5C3C61)C42` (stereo not shown) was tested, and the “hERG current change (%, negative = inhibition) at 1uM” value was 12.7%. In the case of `O=C(O)/C=C/C(=O)Nc1ccc(S(=O)(=O)N2CCCC2)cc1`, the “hERG current change (%, negative = inhibition) at 1uM” value is reported as 9.79%. With `CC1CCCC(C)N1C(=O)Nc1cccc(Cl)c1` (stereo not shown) the “hERG current change (%, negative = inhibition) at 1uM” value was 11%. `COC(=O)C1CCCN1S(=O)(=O)c1ccc2ccccc2c1` (stereo not shown) was tested, and the “hERG current change (%, negative = inhibition) at 1uM” value was -2.62%. `CCOC(=O)[C@@H]1[C@H]2COc3ccc(Br)cc3[C@H]2N2C(=O)N(c3ccc(F)cc3)C(=O)[C@]12C` was tested, and the “hERG current change (%, negative = inhibition) at 1uM” value was 13.1%. With `CCCS(=O)(=O)N1CCN(Cc2ccco2)CC1.O=C(O)C(=O)O` the “hERG current change (%, negative = inhibition) at 1uM” value was 13.8%. `O=C(NCc1cccs1)C1CC(c2ccc(F)cc2)=NO1` (stereo not shown) was tested, and the “hERG current change (%, negative = inhibition) at 1uM” value was 7.19%. For `Cc1cc(NC(=O)CSc2nc(C)c(C)c(=O)[nH]2)no1`, the “hERG current change (%, negative = inhibition) at 1uM” value was 14.9%. `CC(NC(=O)CNC(=O)c1ccco1)c1ccccc1` (stereo not shown) was tested, and the “hERG current change (%, negative = inhibition) at 1uM” value was 11.9%. `Cc1ccc(SCCNC(=O)/C=C/c2ccc(Cl)cc2)cc1` was tested, and the “hERG current change (%, negative = inhibition) at 1uM” value was 9.31%. For `CCCn1c(SCC(=O)NC2CCCCC2)nnc1C1CC1`, the “hERG current change (%, negative = inhibition) at 1uM” value was 8.58%. `Cc1nn(C(=O)CN2C(=O)c3ccccc3C2=O)c(C)c1Br` was tested, and the “hERG current change (%, negative = inhibition) at 1uM” value was 6.8%. In the case of `Clc1ccc(-c2cn3cccnc3n2)cc1`, the “hERG current change (%, negative = inhibition) at 1uM” value is reported as 15.3%. `CCOc1cc(/C=N/NC(=O)c2nnn(-c3nonc3N)c2C)ccc1OCc1cccc(F)c1` was tested, and the “hERG current change (%, negative = inhibition) at 1uM” value was 21.2%. For `CC(C)(C)c1ccc(C(=O)Cn2cnnc2C#N)cc1`, the “hERG current change (%, negative = inhibition) at 1uM” value was 6.52%. With `CC(C)(C)C(=O)OCCNc1nc(-c2ccccc2)nc2ccccc12` the “hERG current change (%, negative = inhibition) at 1uM” value was 5.38%. For `CN1c2ccccc2-c2nc3ccccc3n2C1c1ccccn1` (stereo not shown), the “hERG current change (%, negative = inhibition) at 1uM” value was 9.52%. With `Cc1ccc(NC(=O)N2CCN(C(=O)c3ccco3)CC2)cc1Cl` the “hERG current change (%, negative = inhibition) at 1uM” value was 11.4%. For `NC(=O)Nc1ccc(C(=O)OCC(=O)Nc2ccc([N+](=O)[O-])cc2C(F)(F)F)cc1`, the “hERG current change (%, negative = inhibition) at 1uM” value was 5%. In the case of `Nc1nnc(-c2ccc(Cl)cc2)o1`, the “hERG current change (%, negative = inhibition) at 1uM” value is reported as 8.73%. In the case of `CCOc1ccccc1N(CC(=O)N1CCc2ccccc2C1)S(C)(=O)=O`, the “hERG current change (%, negative = inhibition) at 1uM” value is reported as 17.5%. In the case of `O=c1oc(-c2cccc(S(=O)(=O)N3CCOCC3)c2)nc2ccccc12`, the “hERG current change (%, negative = inhibition) at 1uM” value is reported as 6.33%. In the case of `CC(C)(C)CC(=O)N1CCN(Cc2ccc3c(c2)OCO3)CC1`, the “hERG current change (%, negative = inhibition) at 1uM” value is reported as 8.86%. `Cc1cc(C(=O)N2CCCC(Nc3ccc(F)cc3)C2)c(C)o1` (stereo not shown) was tested, and the “hERG current change (%, negative = inhibition) at 1uM” value was 11.8%. In the case of `CC1CC(=O)N(CC(=O)Nc2ccc(Br)cc2)c2ccccc2S1(=O)=O` (stereo not shown), the “hERG current change (%, negative = inhibition) at 1uM” value is reported as 7.6%. For `Cc1ccc2c(c1)nnn2C1CCN(S(=O)(=O)c2ccc(C(=O)N3CC(C)CC(C)C3)cc2)CC1` (stereo not shown), the “hERG current change (%, negative = inhibition) at 1uM” value was 8.68%. `COC(=O)C1=C(c2cccc(OCc3ccccc3)c2)C[C@@H]2CC[C@H]1N2C(=O)NCCOc1ccccc1` was tested, and the “hERG current change (%, negative = inhibition) at 1uM” value was 10.7%. In the case of `CCOC(=O)c1ccc2c(c1)nc(C)n2CC`, the “hERG current change (%, negative = inhibition) at 1uM” value is reported as 12.6%. `CSCc1c(C(=O)NC2CCCc3ccccc32)oc2ccccc12` (stereo not shown) was tested, and the “hERG current change (%, negative = inhibition) at 1uM” value was 11.9%. In the case of `COc1ccccc1NC(NC(=O)c1ccco1)C(=O)c1ccccc1` (stereo not shown), the “hERG current change (%, negative = inhibition) at 1uM” value is reported as 2.96%. `O=C(CSC1c2ccccc2-c2ccccc21)N/N=C/c1ccc(C(=O)O)cc1` was tested, and the “hERG current change (%, negative = inhibition) at 1uM” value was 11.3%.
